Test results taken from PubChem BioAssay AID463173 (ICCB-Longwood Screening Facility, Harvard Medical School, 2010).
Out of some 52,000 compounds screened, about 1,700 (3.3%) were called active. No stated cut-off is given here; in the data, active means survival mostly below about 52% (no sharp cut-off); inactive means mostly above about 56%. The list shows a part of the results.

Each compound was assayed on Wild type (assay: S. aureus survival, RN4220 and DeltatarO strains – OD600, teichoic acid synthesis inhibitors, primary screen (AID 463173)). Conditions: S. aureus RN4220 wild type/DeltatarO growth, OD600, 18 h, stronger effect = lower value, screened at 18.75 µg/mL (by protocol).

Q: How did the survival turn out when `Cc1ccc(-n2ncc3c(NC4CCCCCC4)ncnc32)cc1` was run?
A: Its survival is inactive: 53%.

Q: For `COc1ccc(CNC(=O)CN2C(=O)CC(c3ccc(C)c(C)c3)=Nc3ccccc32)cc1`, which survival is on record?
A: Its survival is inactive: 73%.

Q: With `O=C(c1cnc(N2CCOCC2)c2ccccc12)N1CCN(c2ccccc2)CC1` as the compound, how does the survival read?
A: Its survival is inactive: 66%.

Q: With `COc1cc(C)c(N)cc1C(C)C` as the compound, how does the survival read?
A: Its survival is inactive: 100%.

Q: `Cc1cc(C)c(-c2n[nH]c3c2C(c2ccccc2F)N(Cc2ccco2)C3=O)c(O)c1` (configuration not stated) was tested. Which survival did it give?
A: Its survival is active: 8%.

Q: With `O=c1[nH]c2cc(Br)ccc2n2cccc12` as the compound, how does the survival read?
A: The survival was inactive: 55%.

Q: For `COc1cc(NC(=O)N2CCc3c(sc4c3CCCC4)C2c2ccccc2)cc(OC)c1OC` (configuration not stated), which survival is on record?
A: The survival was inactive: 101%.

Q: For `CCN(CC)CCSc1c(C(C)C)cnc2c1c(=O)n(C)c(=O)n2C`, which survival is on record?
A: Its survival is inactive: 64%.

Q: With `CCOc1ccc(CNC(=O)CSc2nnc(C)c3c(C)n(-c4ccc(Cl)cc4)nc23)cc1` as the compound, how does the survival read?
A: The survival was inactive: 90%.

Q: `O=C(CN1C(=O)COc2ccc(S(=O)(=O)NC3CCCC3)cc21)NCc1ccc(Cl)cc1` was tested. Which survival did it give?
A: Its survival is inactive: 68%.

Q: `CCC(CC)c1nnc(NC(=O)CS(=O)(=O)Cc2ccccc2)s1` was tested. Which survival did it give?
A: The survival was inactive: 105%.

Q: For `COc1ccc(OC)c2sc(N3CCN(C(=O)c4ccco4)CC3)nc12`, which survival is on record?
A: The survival was inactive: 76%.

Q: How did the survival turn out when `CN(C)NC1CCS(=O)(=O)C1` (configuration not stated) was run?
A: The survival was inactive: 113%.

Q: For `Cc1c(C(=O)N2CCC(C)CC2)c(S(=O)(=O)N(Cc2ccccc2)C(C)(C)C)c(C)n1C`, which survival is on record?
A: Its survival is inactive: 76%.

Q: With `CN1CCN(C(=O)C(=O)Nc2c3c(nn2-c2ccc(Cl)cc2)CSC3)CC1` as the compound, how does the survival read?
A: The survival was inactive: 71%.

Q: `Cn1c(=O)c(C(=O)O)nn(-c2ccccc2)c1=O` was tested. Which survival did it give?
A: The survival was inactive: 81%.

Q: Which survival does the source give for `Cc1ccc(NC(=O)Nc2nnc(N3CCCC3)s2)cc1C` here?
A: Its survival is inactive: 85%.

Q: `Cc1nn2c(=O)cc(COC(=O)c3cccc(NC(=O)COc4ccccc4C)c3)nc2s1` was tested. Which survival did it give?
A: The survival was inactive: 86%.

Q: With `CCOCCCn1c(=N)c(C(=O)NCc2cccnc2)cc2c(=O)n3ccccc3nc21` as the compound, how does the survival read?
A: Its survival is inactive: 70%.

Q: `CCN(CC)C(=O)c1ccc2c(c1)N(Cc1ccc(C(F)(F)F)cc1)C(=O)c1ccccc1S2` was tested. Which survival did it give?
A: The survival was inactive: 81%.

Q: Which survival does the source give for `Cc1ccc(N2C(=O)CCSC23C(=O)N(Cc2ccccc2)c2ccccc23)cc1` (configuration not stated) here?
A: The survival was inactive: 72%.

Q: `CCOc1ccccc1CNC(=O)C1CCCN(c2nnc(C)c3c(C)n(-c4ccccc4)nc23)C1` (configuration not stated) was tested. Which survival did it give?
A: Its survival is inactive: 71%.

Q: How did the survival turn out when `COc1cccc(CNC(=O)CSC2=Nc3ccccc3N=C(c3ccc(F)cc3)C2)c1` was run?
A: Its survival is inactive: 128%.

Q: `COc1cccc(CN(Cc2ccco2)C(c2nnnn2Cc2ccc(F)cc2)C(C)C)c1` (configuration not stated) was tested. Which survival did it give?
A: Its survival is inactive: 106%.

Q: For `COC(=O)c1ccc(C(=O)OC)c(NC(=O)CN(c2ccccc2)S(=O)(=O)N(C)C)c1`, which survival is on record?
A: Its survival is inactive: 95%.

Q: Which survival does the source give for `CCOC(=O)C1CCN(C(=O)Cn2nc(CC)n3c(cc4sccc43)c2=O)CC1` here?
A: Its survival is inactive: 121%.

Q: Which survival does the source give for `O=C(NCc1ccccc1Cl)c1ccc(CS(=O)(=O)c2ccc(Br)cc2)o1` here?
A: Its survival is inactive: 130%.

Q: How did the survival turn out when `Cn1nnnc1SCCCNCc1ccccc1OCc1ccc(Cl)cc1` was run?
A: The survival was inactive: 96%.

Q: With `COc1ccc(Nc2ncnc3sc4c(c23)CCCC4)cc1` as the compound, how does the survival read?
A: The survival was inactive: 73%.

Q: How did the survival turn out when `Cc1cc(C)c(NC(=O)Cn2c(=O)n(CCC(=O)N3CCc4ccccc4C3)c(=O)c3ccccc32)c(C)c1` was run?
A: The survival was inactive: 83%.

Q: With `CCN(CC)S(=O)(=O)c1ccc2c(c1)N(CC(=O)N1CCN(c3cccc(C)c3C)CC1)C(=O)CO2` as the compound, how does the survival read?
A: The survival was inactive: 128%.

Q: Which survival does the source give for `Clc1ccc(-n2ncc3c(NC4CCCC4)ncnc32)cc1` here?
A: The survival was inactive: 80%.

Q: How did the survival turn out when `O=C(CSc1ncccn1)NN=C1CCCCCC1` was run?
A: The survival was inactive: 93%.

Q: For `Cc1c(CNC2CCCCC2)c(C(=O)O)c(C)n1Cc1ccc(Cl)cc1`, which survival is on record?
A: The survival was inactive: 96%.

Q: `Cc1ccc(Cn2c3ccccc3c3cnn(CC(=O)Nc4cc(Cl)ccc4C)c(=O)c32)cc1` was tested. Which survival did it give?
A: Its survival is inactive: 77%.

Q: For `CCC(=O)Nc1sc2c(c1C#N)CC(C)(C)NC2(C)C`, which survival is on record?
A: The survival was inactive: 105%.

Q: How did the survival turn out when `CCOc1cc(CNS(=O)(=O)c2ccc3c(c2)C(C)(C)C(=O)N3)cc(OCC)c1OCC` was run?
A: Its survival is inactive: 88%.

Q: With `COc1ccc(N2CCN(C(=O)c3cccn3-c3nnc(N4CCCC4)s3)CC2)cc1` as the compound, how does the survival read?
A: The survival was inactive: 95%.

Q: For `O=C(CSc1n[nH]c(-c2ccccc2Cl)n1)NCCc1ccccc1`, which survival is on record?
A: Its survival is inactive: 72%.

Q: `CCc1nn(CCCC(=O)NCc2ccc(OC(C)C)cc2)c(=O)c2cc3occc3n12` was tested. Which survival did it give?
A: The survival was inactive: 89%.

Q: How did the survival turn out when `COc1ccc(C)cc1NC(=O)Nc1nnc(N2CCCCC2)s1` was run?
A: The survival was inactive: 70%.

Q: How did the survival turn out when `CCOC(=O)C1CCCN(c2nc3c(S(=O)(=O)c4ccc(CC)cc4)nnn3c3ccc(Cl)cc23)C1` (configuration not stated) was run?
A: The survival was inactive: 89%.

Q: How did the survival turn out when `CC(NC(=O)Cn1ccc2cc(S(=O)(=O)N3CCCCCC3)ccc21)c1ccccc1` (configuration not stated) was run?
A: Its survival is inactive: 76%.

Q: How did the survival turn out when `O=C(CSc1nnc(Cc2csc(Nc3cccc(Cl)c3)n2)o1)c1ccc2c(c1)OCCO2` was run?
A: Its survival is inactive: 88%.

Q: `CCN(C(=O)CCc1nc(-c2ccc(C)cc2)no1)c1cccc(C(F)(F)F)c1` was tested. Which survival did it give?
A: The survival was active: 0%.

Q: `COc1ccc(C(=O)Nc2ccc(S(=O)(=O)Nc3cc(C)nc(C)n3)cc2)cc1` was tested. Which survival did it give?
A: The survival was inactive: 77%.

Q: With `O=C(CCS(=O)(=O)c1cc2c(cc1Cl)NC(=O)CO2)NCCc1ccccc1` as the compound, how does the survival read?
A: The survival was inactive: 87%.

Q: With `CCCS(=O)(=O)N1CC(=O)N(c2cccc(F)c2)C(C)(C(=O)NC2CCCCCC2)C1` (configuration not stated) as the compound, how does the survival read?
A: The survival was inactive: 75%.

Q: `CCC(=O)N=c1sc2ccccc2n1-c1ccccc1` was tested. Which survival did it give?
A: The survival was inactive: 93%.

Q: How did the survival turn out when `CCc1ccc(NC(=O)CSc2nnc3[nH]c(=O)cc(-c4ccccc4)n23)cc1` was run?
A: Its survival is inactive: 143%.

Q: `CCOC(=O)c1c(C)[nH]c(CCC(=O)Nc2ccccc2C(F)(F)F)c1C` was tested. Which survival did it give?
A: Its survival is inactive: 68%.

Q: How did the survival turn out when `CC(=O)N1c2ccccc2N(C)C(=O)C1(C)C` was run?
A: The survival was inactive: 105%.

Q: For `COC(=O)c1ccc2c(=O)n3nc(Nc4ccc(F)cc4F)sc3nc2c1`, which survival is on record?
A: The survival was inactive: 92%.

Q: `COc1ccc(CN2CCc3c(c(=O)n4ncc(C(=O)N5CCN(c6ccccc6F)CC5)c4n3C)C2)cc1` was tested. Which survival did it give?
A: The survival was inactive: 78%.

Q: `COc1cc(CNc2ccc3[nH]c(=O)[nH]c3c2)ccc1OCc1ccc(F)cc1Cl` was tested. Which survival did it give?
A: The survival was inactive: 88%.

Q: Which survival does the source give for `CCCCC1CCC(C(=O)N2CC(=O)Nc3ccc(C)cc3C2c2ccc(F)cc2)CC1` (configuration not stated) here?
A: Its survival is inactive: 51%.

Q: For `COc1ccc(Cn2ccc3nc(C)c(C(=O)N4CCN(c5cccc(OC)c5)CC4)cc3c2=O)cc1`, which survival is on record?
A: Its survival is inactive: 71%.
